From the supplement of paper PMC12230231

Test system: SIVsab (simian immunodeficiency virus of sabaeus monkeys), single-cycle GFP reporter, in CRFK cells
Experiment: enrichment among uninfected cells over input (fold); higher = stronger restriction
Details: library: human / rhesus combinations
Procedure: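 Pools of CRFK cells expressing variants of the TRIM5α v1 loop were challenged with the single-cycle reporter, sorted by GFP and sequenced; mean of two replicates.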

| Sequence | enrichment |
| --- | --- |
| MASGILVNVKEEVTCPICLELLTQPLSLDCGHSFCQACLTANHKKSMLDKGESSCPVCRISYQPENIRPNRHVANIVEKLREVKLSPEGQKVDHCARHGEKLLLFCQEDGKVICWLCERSQEHRGHHTFLTEEVAREYQVKLQAALEMLRQKQQEAEELEADIREEKASWKTQIQYDKTNVLADFEQLRDILDWEESNELQNLEKEEEDILKSLTNSETEMVQQTQSLRELISDLEHRLQGSVMELLQGVDGVIKRTENVTLKKPETFPKNQRRVFRAPDLKGMLEVFRELTDVRRYWVDVTVAPNNISCAVISEDKRQVSSPKPQIIYGARGTLFTFQTFTNFNYCTGILGSQSITSGKHYWEVDVSKKTAWILGVCAGFQPDAMCNIEKNENYQPKYGYWVIGLEEGVKCSAFQDSSFHTPSVPFIVPLSVIICPDRVGVFLDYEACTVSFFNITNHGFLIYKFSHCSFSQPVFPYLNPRKCGVPMTLCSPSS [human TRIM5α, 330-340 = GARGTLFTFQTFT] | 0.244 ± 0.065 |
| MASGILVNVKEEVTCPICLELLTQPLSLDCGHSFCQACLTANHKKSMLDKGESSCPVCRISYQPENIRPNRHVANIVEKLREVKLSPEGQKVDHCARHGEKLLLFCQEDGKVICWLCERSQEHRGHHTFLTEEVAREYQVKLQAALEMLRQKQQEAEELEADIREEKASWKTQIQYDKTNVLADFEQLRDILDWEESNELQNLEKEEEDILKSLTNSETEMVQQTQSLRELISDLEHRLQGSVMELLQGVDGVIKRTENVTLKKPETFPKNQRRVFRAPDLKGMLEVFRELTDVRRYWVDVTVAPNNISCAVISEDKRQVSSPKPQIIYGARGTRYTFPSFTNFNYCTGILGSQSITSGKHYWEVDVSKKTAWILGVCAGFQPDAMCNIEKNENYQPKYGYWVIGLEEGVKCSAFQDSSFHTPSVPFIVPLSVIICPDRVGVFLDYEACTVSFFNITNHGFLIYKFSHCSFSQPVFPYLNPRKCGVPMTLCSPSS [human TRIM5α, 330-340 = GARGTRYTFPSFT] | 0.152 ± 0.029 |
| MASGILVNVKEEVTCPICLELLTQPLSLDCGHSFCQACLTANHKKSMLDKGESSCPVCRISYQPENIRPNRHVANIVEKLREVKLSPEGQKVDHCARHGEKLLLFCQEDGKVICWLCERSQEHRGHHTFLTEEVAREYQVKLQAALEMLRQKQQEAEELEADIREEKASWKTQIQYDKTNVLADFEQLRDILDWEESNELQNLEKEEEDILKSLTNSETEMVQQTQSLRELISDLEHRLQGSVMELLQGVDGVIKRTENVTLKKPETFPKNQRRVFRAPDLKGMLEVFRELTDVRRYWVDVTVAPNNISCAVISEDKRQVSSPKPQIIYQAPGTLFTFQSLTNFNYCTGILGSQSITSGKHYWEVDVSKKTAWILGVCAGFQPDAMCNIEKNENYQPKYGYWVIGLEEGVKCSAFQDSSFHTPSVPFIVPLSVIICPDRVGVFLDYEACTVSFFNITNHGFLIYKFSHCSFSQPVFPYLNPRKCGVPMTLCSPSS [human TRIM5α, 330-340 = QAPGTLFTFQSLT] | 0.905 ± 0.16 |
| MASGILVNVKEEVTCPICLELLTQPLSLDCGHSFCQACLTANHKKSMLDKGESSCPVCRISYQPENIRPNRHVANIVEKLREVKLSPEGQKVDHCARHGEKLLLFCQEDGKVICWLCERSQEHRGHHTFLTEEVAREYQVKLQAALEMLRQKQQEAEELEADIREEKASWKTQIQYDKTNVLADFEQLRDILDWEESNELQNLEKEEEDILKSLTNSETEMVQQTQSLRELISDLEHRLQGSVMELLQGVDGVIKRTENVTLKKPETFPKNQRRVFRAPDLKGMLEVFRELTDVRRYWVDVTVAPNNISCAVISEDKRQVSSPKPQIIYQAPGTRFQTLVNFNYCTGILGSQSITSGKHYWEVDVSKKTAWILGVCAGFQPDAMCNIEKNENYQPKYGYWVIGLEEGVKCSAFQDSSFHTPSVPFIVPLSVIICPDRVGVFLDYEACTVSFFNITNHGFLIYKFSHCSFSQPVFPYLNPRKCGVPMTLCSPSS [human TRIM5α, 330-340 = QAPGTRFQTLV] | 0.00321 ± 0.0032 |
| MASGILVNVKEEVTCPICLELLTQPLSLDCGHSFCQACLTANHKKSMLDKGESSCPVCRISYQPENIRPNRHVANIVEKLREVKLSPEGQKVDHCARHGEKLLLFCQEDGKVICWLCERSQEHRGHHTFLTEEVAREYQVKLQAALEMLRQKQQEAEELEADIREEKASWKTQIQYDKTNVLADFEQLRDILDWEESNELQNLEKEEEDILKSLTNSETEMVQQTQSLRELISDLEHRLQGSVMELLQGVDGVIKRTENVTLKKPETFPKNQRRVFRAPDLKGMLEVFRELTDVRRYWVDVTVAPNNISCAVISEDKRQVSSPKPQIIYQARGTRFTFPSFTNFNYCTGILGSQSITSGKHYWEVDVSKKTAWILGVCAGFQPDAMCNIEKNENYQPKYGYWVIGLEEGVKCSAFQDSSFHTPSVPFIVPLSVIICPDRVGVFLDYEACTVSFFNITNHGFLIYKFSHCSFSQPVFPYLNPRKCGVPMTLCSPSS [human TRIM5α, 330-340 = QARGTRFTFPSFT] | 0.117 ± 0.036 |
| MASGILVNVKEEVTCPICLELLTQPLSLDCGHSFCQACLTANHKKSMLDKGESSCPVCRISYQPENIRPNRHVANIVEKLREVKLSPEGQKVDHCARHGEKLLLFCQEDGKVICWLCERSQEHRGHHTFLTEEVAREYQVKLQAALEMLRQKQQEAEELEADIREEKASWKTQIQYDKTNVLADFEQLRDILDWEESNELQNLEKEEEDILKSLTNSETEMVQQTQSLRELISDLEHRLQGSVMELLQGVDGVIKRTENVTLKKPETFPKNQRRVFRAPDLKGMLEVFRELTDVRRYWVDVTVAPNNISCAVISEDKRQVSSPKPQIIYGAPGTLFTFQTFTNFNYCTGILGSQSITSGKHYWEVDVSKKTAWILGVCAGFQPDAMCNIEKNENYQPKYGYWVIGLEEGVKCSAFQDSSFHTPSVPFIVPLSVIICPDRVGVFLDYEACTVSFFNITNHGFLIYKFSHCSFSQPVFPYLNPRKCGVPMTLCSPSS [human TRIM5α, 330-340 = GAPGTLFTFQTFT] | 0.0745 ± 0.0049 |
| MASGILVNVKEEVTCPICLELLTQPLSLDCGHSFCQACLTANHKKSMLDKGESSCPVCRISYQPENIRPNRHVANIVEKLREVKLSPEGQKVDHCARHGEKLLLFCQEDGKVICWLCERSQEHRGHHTFLTEEVAREYQVKLQAALEMLRQKQQEAEELEADIREEKASWKTQIQYDKTNVLADFEQLRDILDWEESNELQNLEKEEEDILKSLTNSETEMVQQTQSLRELISDLEHRLQGSVMELLQGVDGVIKRTENVTLKKPETFPKNQRRVFRAPDLKGMLEVFRELTDVRRYWVDVTVAPNNISCAVISEDKRQVSSPKPQIIYGAPGTLFTFQTLTNFNYCTGILGSQSITSGKHYWEVDVSKKTAWILGVCAGFQPDAMCNIEKNENYQPKYGYWVIGLEEGVKCSAFQDSSFHTPSVPFIVPLSVIICPDRVGVFLDYEACTVSFFNITNHGFLIYKFSHCSFSQPVFPYLNPRKCGVPMTLCSPSS [human TRIM5α, 330-340 = GAPGTLFTFQTLT] | 0.088 ± 0.12 |

Same assay, conditions: library: insertions and deletions

| Sequence | enrichment |
| --- | --- |
| MASGILVNVKEEVTCPICLELLTQPLSLDCGHSFCQACLTANHKKSMLDKGESSCPVCRISYQPENIRPNRHVANIVEKLREVKLSPEGQKVDHCARHGEKLLLFCQEDGKVICWLCERSQEHRGHHTFLTEEVAREYQVKLQAALEMLRQKQQEAEELEADIREEKASWKTQIQYDKTNVLADFEQLRDILDWEESNELQNLEKEEEDILKSLTNSETEMVQQTQSLRELISDLEHRLQGSVMELLQGVDGVIKRTENVTLKKPETFPKNQRRVFRAPDLKGMLEVFRELTDVRRYWVDVTVAPNNISCAVISEDKRQVSSPKPQIIYGARGIYGARGTRYQTFVNFNYCTGILGSQSITSGKHYWEVDVSKKTAWILGVCAGFQPDAMCNIEKNENYQPKYGYWVIGLEEGVKCSAFQDSSFHTPSVPFIVPLSVIICPDRVGVFLDYEACTVSFFNITNHGFLIYKFSHCSFSQPVFPYLNPRKCGVPMTLCSPSS [human TRIM5α, 6-codon duplication at 328] | 0.373 ± 0.036 |
| MASGILVNVKEEVTCPICLELLTQPLSLDCGHSFCQACLTANHKKSMLDKGESSCPVCRISYQPENIRPNRHVANIVEKLREVKLSPEGQKVDHCARHGEKLLLFCQEDGKVICWLCERSQEHRGHHTFLTEEVAREYQVKLQAALEMLRQKQQEAEELEADIREEKASWKTQIQYDKTNVLADFEQLRDILDWEESNELQNLEKEEEDILKSLTNSETEMVQQTQSLRELISDLEHRLQGSVMELLQGVDGVIKRTENVTLKKPETFPKNQRRVFRAPDLKGMLEVFRELTDVRRYWVDVTVAPNNISCAVISEDKRQVSSPKPQIIYGARGTRYQTFVNFNYCTTFVNFNYCTGILGSQSITSGKHYWEVDVSKKTAWILGVCAGFQPDAMCNIEKNENYQPKYGYWVIGLEEGVKCSAFQDSSFHTPSVPFIVPLSVIICPDRVGVFLDYEACTVSFFNITNHGFLIYKFSHCSFSQPVFPYLNPRKCGVPMTLCSPSS [human TRIM5α, 9-codon duplication at 338] | 4.26 ± 5.8 |
| MASGILVNVKEEVTCPICLELLTQPLSLDCGHSFCQACLTANHKKSMLDKGESSCPVCRISYQPENIRPNRHVANIVEKLREVKLSPEGQKVDHCARHGEKLLLFCQEDGKVICWLCERSQEHRGHHTFLTEEVAREYQVKLQAALEMLRQKQQEAEELEADIREEKASWKTQIQYDKTNVLADFEQLRDILDWEESNELQNLEKEEEDILKSLTNSETEMVQQTQSLRELISDLEHRLQGSVMELLQGVDGVIKRTENVTLKKPETFPKNQRRVFRAPDLKGMLEVFRELTDVRRYWVDVTVAPNNISCAVISEDKRQVSSPKPQIIYGARGTRYQTFVNFTFVNFNYCTGILGSQSITSGKHYWEVDVSKKTAWILGVCAGFQPDAMCNIEKNENYQPKYGYWVIGLEEGVKCSAFQDSSFHTPSVPFIVPLSVIICPDRVGVFLDYEACTVSFFNITNHGFLIYKFSHCSFSQPVFPYLNPRKCGVPMTLCSPSS [human TRIM5α, 5-codon duplication at 338] | 0.577 ± 0.32 |
| MASGILVNVKEEVTCPICLELLTQPLSLDCGHSFCQACLTANHKKSMLDKGESSCPVCRISYQPENIRPNRHVANIVEKLREVKLSPEGQKVDHCARHGEKLLLFCQEDGKVICWLCERSQEHRGHHTFLTEEVAREYQVKLQAALEMLRQKQQEAEELEADIREEKASWKTQIQYDKTNVLADFEQLRDILDWEESNELQNLEKEEEDILKSLTNSETEMVQQTQSLRELISDLEHRLQGSVMELLQGVDGVIKRTENVTLKKPETFPKNQRRVFRAPDLKGMLEVFRELTDVRRYWVDVTVAPNNISCAVISEDKRQVSSPKPQIIYGARGTRYQTFVNFNYILGSQSITSGKHYWEVDVSKKTAWILGVCAGFQPDAMCNIEKNENYQPKYGYWVIGLEEGVKCSAFQDSSFHTPSVPFIVPLSVIICPDRVGVFLDYEACTVSFFNITNHGFLIYKFSHCSFSQPVFPYLNPRKCGVPMTLCSPSS [human TRIM5α, 3-codon deletion at 345] | 0.86 ± 0.89 |
| MASGILVNVKEEVTCPICLELLTQPLSLDCGHSFCQACLTANHKKSMLDKGESSCPVCRISYQPENIRPNRHVANIVEKLREVKLSPEGQKVDHCARHGEKLLLFCQEDGKVICWLCERSQEHRGHHTFLTEEVAREYQVKLQAALEMLRQKQQEAEELEADIREEKASWKTQIQYDKTNVLADFEQLRDILDWEESNELQNLEKEEEDILKSLTNSETEMVQQTQSLRELISDLEHRLQGSVMELLQGVDGVIKRTENVTLKKPETFPKNQRRVFRAPDLKGMLEVFRELTDVRRYWVDVTVAPNNISCAVISEDKRQVSSPKPQIIYGARGTRYQTFVNFNYCFVNFNYCTGILGSQSITSGKHYWEVDVSKKTAWILGVCAGFQPDAMCNIEKNENYQPKYGYWVIGLEEGVKCSAFQDSSFHTPSVPFIVPLSVIICPDRVGVFLDYEACTVSFFNITNHGFLIYKFSHCSFSQPVFPYLNPRKCGVPMTLCSPSS [human TRIM5α, 7-codon duplication at 339] | 0.788 ± 0.21 |

± gives the standard deviation of the averaged measurements. Restriction of a single-cycle SIVsab GFP reporter by TRIM5α v1-loop variants in CRFK cells. Human variants: read share among cells still uninfected after two challenges over input, higher = gained restriction. Rhesus variants: share among infected cells over input, higher = lost restriction. Reporter dose not given per row. No active / inactive call per row; the paper calls a change when both replicates lie above its controls (mean + 2 SD of stop or wild-type variants, or the top frameshift score). Residues outside the varied loop are taken from Swiss-Prot. The paper reads the human single-substitution scores as noise; they and the rhesus combinations repeat poorly (rank correlation 0.3 to 0.4), indel scores repeat only for the top variants, rhesus substitutions well (0.9).
